Reference: PubChem BioAssay AID651820 (National Center for Advancing Translational Sciences (NCATS), 2012)
The campaign covered roughly 340,000 compounds. About 12,000 (3.5%) were called active. This list was built around the results that the source calls inconclusive (neither active nor inactive); the mix of calls is not that of the screen. Calls follow the shape of the dose curve; as a rule, active = well fitted inhibition curve with a large enough effect; inconclusive = small, poorly fitted or top-dose-only effect, or another doubt; inactive = no such curve, though single readings can be large or run the other way. A potency beside an inconclusive call is a rough fit, not a confirmed value.

experiment: qHTS Assay for Inhibitors of Hepatitis C Virus (HCV); conditions: Huh7.5.1 HCVcc-Cre (HCVcc is cell-culture hepatitis C virus) infection, luciferase reporter, 44 h; activity change, negative = inhibition: at 41.8 µM (top of the series) unless noted
How it was run: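 Compounds are dispensed onto cells plated 4 h earlier at 1,000 per well, with HCVcc-Cre virus (about 0.5 moi) added next. Following 44 h of culture, luminescent signal is measured for 15 sec after 15 min with substrate at room temperature.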
% is scaled to controls: 0 for no effect and ±100 for the full control effect; potency is read from the fitted curve at half-maximal effect; tags tell the direction and shape of the fitted curve.

SMILES	Potency	activity change, negative = inhibition
Cc1nc2ccccc2c(C)c1CC(=O)OC(C)C(=O)NC1(C#N)CCCCC1 (centres undefined)	inconclusive: 31.6 µM [inhibitor, single point]	–
CC(C)Cn1c2c(c(O)c(C(=O)Nc3ncccc3O)c1=O)CCCC2	inconclusive: 12.6 µM [inhibitor, partial curve]	–
COc1cc(-c2nnc(-c3cc(OC)c(OC)c(OC)c3)o2)cc(OC)c1OC	inconclusive: 1.78 µM [inhibitor, partial curve]	–
CCC(CO)Oc1cc(NCc2cccnc2)c2ncn(C(C)C)c2c1 (centres undefined)	inconclusive: 5.01 µM [inhibitor, single point]	–
COc1ccccc1NC(=O)CCn1c(=O)sc2ccccc21	inconclusive: 31.6 µM [inhibitor, single point]	–
Cc1cc(N2CCN(C)CC2)nc2ccc(NC(=O)CCC(=O)NCCC3=CCCCC3)cc12	inconclusive: 25.1 µM [inhibitor, single point]	–
COc1cccc(CN(C)CC(=O)Nc2ccccc2C(=O)NC2CC2)c1	inconclusive: 35.5 µM [inhibitor, partial curve, poor fit]	–
O=S(=O)(NCCNc1ncc(C(F)(F)F)cc1Cl)C(F)(F)F	inconclusive: 25.1 µM [inhibitor, single point]	–
CC(C)NC(=O)c1[nH]nc2c1CCc1ccccc1-2	inconclusive: 31.6 µM [inhibitor, single point]	–
c1ccc(Cn2nnc3c(NCC4CCCO4)ncnc32)cc1 (centres undefined)	–	inactive: -20.5%
COc1ccc(NCC(=O)N/N=C(\C)c2cc3ccccc3o2)cc1	inconclusive: 14.1 µM [inhibitor, partial curve]	–
CC(=O)c1ccc(N2CCN(c3ccnc4cc(Cl)ccc34)CC2)cc1	inconclusive: 5.62 µM [inhibitor, single point]	–
Fc1ccccc1COc1ccc(Br)cc1CNCc1cccnc1	inconclusive: 5.62 µM [inhibitor, single point]	–
CCOC(=O)N1CCN(C(=O)c2ccc(CSc3ccc(Cl)cc3)cc2)CC1	inconclusive: 12.6 µM [inhibitor, single point]	–
CCc1nc(=O)c(-c2ccccc2)c(C)n1-c1ccccc1	–	inactive: 6.77%
CC(C)c1ccc2oc(-c3ccc(NC(=O)c4ncn[nH]4)cc3)nc2c1	–	inactive: 8.27%
COc1ccc(CCNC(=O)CCn2cccc2)cc1OC	inconclusive: 2.82 µM [inhibitor, single point]	–
COc1ccc(CCN(C(=O)c2ccco2)C(C(=O)NC2CCCC2)c2ccncc2)cc1OC (centres undefined)	–	inactive: 17.4%
Cc1ccc(/C=c2\sc3n(c2=O)CN(c2cccc(Br)c2)CN=3)o1	–	inactive: -11.8%
CNC(=O)CSc1nccn1Cc1ccc(Cl)cc1	–	inactive: -9.66%
Cc1cc(/C=c2/sc3nc4ccccc4n3c2=O)c(C)n1-c1ccccn1	inconclusive: 14.1 µM [inhibitor, partial curve]	–
CCOc1ccc(CCNC(=O)COC(=O)c2nc(Cl)ccc2Cl)cc1OCC	–	inactive: -27.5%
CCc1cccc2c(C(=O)Cn3nnc(-c4ccc(OC)c(OC)c4)n3)c[nH]c12	inconclusive: 10 µM [inhibitor, partial curve]	–

SMILES	Potency	activity change, negative = inhibition
CC(C)=CCc1c(-c2ccc(O)cc2O)oc2cc3c(c(O)c2c1=O)C=CC(C)(C)O3	inconclusive: 35.5 µM [inhibitor, partial curve]	–
COCCCNc1nc(=S)[nH]c2cc(OC)c(OC)cc12	–	inactive: -27.6%
CCOc1ccccc1Nc1nnc(SCc2ccc(C(=O)OC)o2)s1	inconclusive: 10 µM [inhibitor, partial curve]	–
O=C(Cc1c(F)cccc1Cl)NNC(=O)c1ccc(Br)s1	–	inactive: 11.6%
Brc1ccc2c(c1)C(OC1CN3CCC1CC3)c1ccccc1CS2 (centres undefined)	active: 31.6 µM	–
CCN(CC)CCn1c2ccc(F)cc2c2nc(C)sc21	inconclusive: 0.501 µM [inhibitor, full curve, poor fit]	–
O=C(COc1ccc(-c2nnco2)cc1)Nc1ccc(C(F)(F)F)cc1	inconclusive: 8.91 µM [inhibitor, partial curve]	–
CCOc1cc(NC(=S)NC)c(OCC)cc1NC(=O)c1ccc(OC)cc1	inconclusive: 25.1 µM [inhibitor, partial curve]	–
COCCN(CC(=O)Nc1cccc(C)c1)S(=O)(=O)c1ccc(S(=O)(=O)N2CCCC2)cc1	inconclusive: 10 µM [inhibitor, single point]	–
Cc1cc2c(C(C)C)c(O)c(O)c(C=O)c2c(O)c1-c1c(C)cc2c(C(C)C)c(O)c(O)c(C=O)c2c1O	inconclusive: 5.62 µM [inhibitor, single point]	inactive: 0.477% [at 8.37 µM]
COc1ccc(/C=C2\CCCC3C2=NN(C(=O)CSc2n[nH]c(N)n2)C3c2ccc(OC)cc2)cc1 (centres undefined)	inconclusive: 31.6 µM [inhibitor, single point]	–
Cc1ccc(OCC(=O)N/N=C/c2c[nH]c3ccccc23)c([N+](=O)[O-])c1	–	inconclusive: -33.4% [inhibitor] [at 0.335 µM]
Cc1cccc(OCC(=O)N2CCN(C(=O)COc3ccc(Cl)cc3)CC2)c1	inconclusive: 2.51 µM [inhibitor, full curve]	–
CSc1ccccc1NC(=O)CN(C)CC(=O)c1c(C)[nH]c2ccccc12	inconclusive: 31.6 µM [inhibitor, single point]	–
CCOC(=O)CSc1cn2c(n1)CCC2	inconclusive: 3.16 µM [inhibitor, single point]	–
O=C(Nc1ccon1)c1cc(-c2ccccc2)nc2ccccc12	–	inactive: -7.43%
CCC(COC(=O)Nc1cccc(C)c1)NC(=O)OCC(C)C (centres undefined)	inconclusive: 10 µM [inhibitor, partial curve]	–
CCN1/C(=C\C=C2\C(=O)N(C)C(=S)N2C)Sc2ccccc21	–	inactive: -3.67%
COC(=O)c1cn[nH]c1NC(=S)Nc1ccc(C)cc1Cl	inconclusive: 31.6 µM [inhibitor, single point]	–
Cc1cccc(N2CCN(C(=O)c3cccc(N4CCCC4=O)c3)C(C)C2)c1 (centres undefined)	inconclusive: 8.91 µM [inhibitor, partial curve]	–
CCCCC(=O)NNC(=S)NC(=O)c1ccc([N+](=O)[O-])cc1	–	inactive: -3.36%
Cc1ccccc1C(=O)c1c[nH]c(C(N)=O)c1	inconclusive: 3.55 µM [inhibitor, single point]	–
CCn1ccc(-c2ccccc2)c(C#N)c1=O	inconclusive: 31.6 µM [inhibitor, single point]	–

SMILES	Potency	activity change, negative = inhibition
CC(=O)c1c(C)nn(CC(O)COc2ccc3c(c2)CCC3)c1C (centres undefined)	inconclusive: 31.6 µM [inhibitor, single point]	–
CCc1ccc(/C=N/NC(=O)c2cc(-c3cccc([N+](=O)[O-])c3)n[nH]2)cc1	inconclusive: 10 µM [inhibitor, partial curve]	–
CC(C)CNC(=O)c1ccc2c(c1)C(=O)N(C1CCCCC1)C2=O	inconclusive: 31.6 µM [inhibitor, single point]	–
COc1ccccc1NS(=O)(=O)c1cc(C(=O)NCC(c2cccs2)N2CCOCC2)ccc1C (centres undefined)	inconclusive: 31.6 µM [inhibitor, single point]	–
Cc1ccc(C(=O)N/C(=C/c2ccc(-c3cccc([N+](=O)[O-])c3)o2)C(=O)NCCCN(C)C)cc1	active: 11.2 µM	–
CCC1CN(C(=O)NCc2ccc(C)cc2)c2ccccc2O1 (centres undefined)	inconclusive: 11.2 µM [inhibitor, partial curve]	–
Cc1cc(Cl)ccc1OC(C)C(=O)O (centres undefined)	–	inactive: 22.8%
Cc1ccccc1N(C(=O)c1snc(C(N)=O)c1N)C(C)C(=O)NC1CCCCC1 (centres undefined)	inconclusive: 12.6 µM [inhibitor, partial curve, poor fit]	–
Cn1cc(S(=O)(=O)N2CCCC2)cc1C(=O)NCc1ccc(Cl)cc1	inconclusive: 22.4 µM [inhibitor, single point]	–
CC1CCN(S(=O)(=O)c2ccc(C(=O)N3CCN(c4ccccc4F)CC3)cc2)CC1	inconclusive: 14.1 µM [inhibitor, single point]	–
CCOC(=O)C1(CCOc2ccccc2)CCN(Cc2ccc(OC)c(O)c2)CC1	inconclusive: 11.2 µM [inhibitor, single point]	–
O=[N+]([O-])c1cc(S(=O)(=O)NCCN2CCOCC2)ccc1Cl	inconclusive: 31.6 µM [inhibitor, single point]	–
O=C(Nc1ccn(Cc2ccc(F)cc2)n1)c1ccncc1	inconclusive: 10 µM [inhibitor, partial curve]	–
Cc1cnc(C(=O)OCC(=O)NC2CCCC(C)C2C)cn1 (centres undefined)	inconclusive: 31.6 µM [inhibitor, single point]	–
COc1ccc(NC(=O)COc2cccc(-n3cnnn3)c2)cc1Cl	inconclusive: 6.31 µM [inhibitor, full curve, poor fit]	–
Cc1ccc(C2CC(c3cccs3)=NN2S(=O)(=O)c2ccc(C)cc2)cc1 (centres undefined)	inconclusive: 31.6 µM [inhibitor, single point]	–
CCOC(=O)C1CCCN(CC(=O)c2ccc(F)cc2)C1 (centres undefined)	–	inactive: 31.8%
COc1ccc(N2CCN(C(=O)C(=O)c3c(C)[nH]c4ccccc34)CC2)cc1	inconclusive: 15.8 µM [inhibitor, single point]	–
CCNC(=O)CSc1nc2ccccc2c(=O)n1-c1cccc(OC)c1	–	inactive: -23.4%
S=c1[nH]nc(-c2cc(-c3ccccc3)n[nH]2)n1/N=C/c1ccccc1	–	inactive: 15.7%
COc1ccccc1NC(=O)COC(=O)c1c(C)nn(-c2ccccc2)c1C	active: 14.1 µM	–
Cc1nc2ccccc2nc1N1CCOCC1	–	inactive: -2%
